This passage reports self-cleavage results from the RNAGym collection of RNA variant scans (doi:10.7554/elife.90254).

B1: LINE1-mini (parent)
chain: GGCAGAGCUCAACACAGCGUGGCAAAGUGGCUGUGGCUAGACUGCC

The source gives no read counts; variants with many changes may rest on few reads.

The variants in this data set derive from B1. Briefly: self-cleavage, relative activity (ratio to wild type); higher = more cleavage; in vitro, sequencing; the parent is a self-cleaving ribozyme.
GUCAGAGCUCAACACAUCGUGGCAAAGUGGCAGUGGCUAGACUGCC [G2U G17U U32A]: the self-cleavage amounted to 0.01.

With GUCAGAGCUCAACACAGCGUAGCAAAUUGGCUGUGGCUAGACUGCC [G2U G21A G27U], the self-cleavage was 0.15.

Regarding GUCAGAGCUCAACACAACGUGGCAAUGUGGCUGUGGCUAGGUUGCC [G2U G17A A26U A41G C42U], the self-cleavage was determined as 0.03.

Turning to GUCAGAUCUCAACACAGCGUGGCAAAGUGGCUGUUGCUAGACUGCC [G2U G7U G35U], the self-cleavage came to 0.04.

Consider GUCAGAGCUCAACACAUCGUGGCAAAGUGCCUGUGGCUAGACUGCC [G2U G17U G30C], for which the self-cleavage came out at 0.06.

Regarding GUCAGAGCUCAACACAGCGUGGCAAAGUCGCGGUGGCUAGAGUGCC [G2U G29C U32G C42G], the self-cleavage was 0.03.

For GUCAGAGCUCAACACAGCAUGGCAAAGUGGCUGUGGCUAGUCUGCC [G2U G19A A41U], the self-cleavage was 0.03.

For GUCAGAGCUCAACACAGCGUGGCAAAUUGCCUGUGGCUAGACUGCC [G2U G27U G30C], the self-cleavage worked out at 0.06.

GUCAGAGCUCAACACAGCGUGACAAAGUGGCUCUGGCUAGACUGCC [G2U G22A G33C]: the self-cleavage came out at 0.06.

Take GUCAGAGCUCAACACAGCGUUGCAAAGUGGACGUGUCUAGACUGCC [G2U G21U C31A U32C G36U]: the self-cleavage was found to be 0.02.

For the variant GUCAGAGCUCAACACAGCGUGGCAAAGUGGCUGUGGCUACACUGCU [G2U G40C C46U], the self-cleavage is 0.

On to GUCAGAUCUCAACAAAGCGUGGCAAAGUGGCUGUGGCUAGACUCCC [G2U G7U C15A G44C], for which the self-cleavage stood at 0.11.

GUCAGAGCUCAACACAGCGUGGCAAAGUGGCUGUCGCUAGACUACC [G2U G35C G44A]: the self-cleavage stood at 0.02.

For the variant GUCAGAGCUCAACACAGCCUGGCUAAGUGGCUGUGGCUAGACUGCC [G2U G19C A24U], the self-cleavage is 0.16.

For the variant GUCAGAGCUCAACACAGCCUGACAAAGUUGCUGUGGCUAGACUGCC [G2U G19C G22A G29U], the self-cleavage was 0.05.

In the case of GUCAGAGCUCAACACAGCGUCGCAAAGUGGCGGUGGCUAGAAUGCC [G2U G21C U32G C42A], the self-cleavage amounted to 0.02.

Take GUCAGAGCUCAACACAGCGUGGCAAAGUUGCUGUGGCUAGACUGCU [G2U G29U C46U]: the self-cleavage stood at 0.03.

With GUCAGAGCUCAACACAGCGUGGCAAAGUGGCUGUGUCUGGACUGCC [G2U G36U A39G], the self-cleavage was 0.

For the variant GUCAGAGCUCAACACAGCGUGGCAAAAUGGCUGUGGUUAGACCGCC [G2U G27A C37U U43C], the self-cleavage is 0.03.

As to GUCAGAGCUCAACACACCGAGGCAAAGUGGCUGUGGCUAGACCGCC [G2U G17C U20A U43C], the self-cleavage turned out to be 0.

For the variant GUCAGAGCUCAACACAGCGUGGCAAAGUGUCUGUGGCUAAACUGCC [G2U G30U G40A], the self-cleavage was 0.03.

As to GUCAGAGCUCAACACAGCGUGGCAAAGUGUCUGUGGCUAUACUGCC [G2U G30U G40U], the self-cleavage is 0.02.

Regarding GUCAGAGCUCAACACAGCAUGGCAAAGUGGCGGUAGCUAGACUGCC [G2U G19A U32G G35A], the self-cleavage came out at 0.1.

On to GUCAGAGCUCAACACAUCGUGGCAUAGUGGCUGUGGCUAGACUGCC [G2U G17U A25U], for which the self-cleavage is 0.07.

For the variant GUCAGAGCUCAACACACCGUGGAAAAGUGGCUGUGGCUAGACUGCC [G2U G17C C23A], the self-cleavage was 0.01.

For the variant GUCAGAGCUCAACACAGCGUGGCAAAGUUGCUGUGGCUAGGCUGCC [G2U G29U A41G], the self-cleavage is 0.04.

For the variant GUCAGAGCUCAACACAGCGUGGCAAAUUGGCUGUGGCAAGACUGCC [G2U G27U U38A], the self-cleavage was found to be 0.02.

Take GUCAGAGCUCAACACACCGUGGCAAAGUGGCUGUGGCUAGACUGGC [G2U G17C C45G]: the self-cleavage turned out to be 0.04.

As to GUCAGAGCUCAACACAACGUGGCAAAGUGACUGUGGCUAGACUGCC [G2U G17A G30A], the self-cleavage was 0.11.

As to GUCAGAGCUCAACACAGCGUGACAAAGUGGCUGCGGCUAGACUGCC [G2U G22A U34C], the self-cleavage was 0.01.

For GUCAGAUCUCAACACAGGCUGGCAAAGUGGCUGUGGCUAGACUGCC [G2U G7U C18G G19C], the self-cleavage was 0.03.

For the variant GUCAGAGCUCAACACAGCCUGGCAAAGUGGCUGUGGCUAGACUGCA [G2U G19C C46A], the self-cleavage stood at 0.04.

In the case of GUCAGAGCUCAACACAGCGUCGCAAAGUGGCUGUGGCUAAACUGCC [G2U G21C G40A], the self-cleavage came out at 0.04.

Turning to GUCAGAGCUCAACACAGCGUGACUAAGUGGCUGAGGCUAGACUGCC [G2U G22A A24U U34A], the self-cleavage was 0.01.

GUCAGAGCUCAACACAGCGUCGGAAAGUGGCUGUGGCUAGACUGCC [G2U G21C C23G]: the self-cleavage was 0.07.

On to GUCAGAGCUCAACACAGCGUCGCAAAGUGGCUGUGGAUAGACUGCC [G2U G21C C37A], for which the self-cleavage was 0.02.

Regarding GUCAGAGCUCAACACAGCGUGGCAAAGUGACUGUGGCUAGAGUGCC [G2U G30A C42G], the self-cleavage came to 0.06.

As for GUCAGAGCUCAACACACCGUGGCACAGUGGCUGUGGCUAGACUGCC [G2U G17C A25C], the self-cleavage was found to be 0.02.

Take GUCAGAGCUCAACACAGCGUAGAAAAGUGGCUGUGGCUAGACUGCC [G2U G21A C23A]: the self-cleavage is 0.06.

Regarding GUCAGAGCUCAACACAGCCUGGAAAAGUGGAUGUGGUUAGACUGCC [G2U G19C C23A C31A C37U], the self-cleavage turned out to be 0.05.

Take GUCAGAGCUCAACACAACGUGGCAAAGUGGCUAUGGCAAGACUGCC [G2U G17A G33A U38A]: the self-cleavage amounted to 0.01.

Consider GUCAGAGCUCAACACAGCGUGGCAAAGUGGCUUUGGCUAGGCUGCC [G2U G33U A41G], for which the self-cleavage stood at 0.04.

Regarding GUCAGAGCUCAACACAGCGUGGCAAAGUGGCUACGACUAGACUGCC [G2U G33A U34C G36A], the self-cleavage turned out to be 0.02.

With GUCAGAUAACAACACAGCGUGGCUAGGUGGCUGUGGCUAGACUGCC [G2U G7U C8A U9A A24U A26G], the self-cleavage came out at 0.06.

GUCAGAGCUCAACACAACGUGGCAAAGUGGCUGUGGCUAGACUGUC [G2U G17A C45U]: the self-cleavage is 0.02.

As to GUCAGAGCUCAACACAGCGUGGCAAAGUGGCUGUGGCUACUCUGCC [G2U G40C A41U], the self-cleavage was 0.03.

For GUCAGAGCUCAACACAGCGUGGCAAAAAGGCUGUGGCCAGACUGCC [G2U G27A U28A U38C], the self-cleavage is 0.01.

Turning to GUCAGAGCUCAACACAUCGUGGCAGAGUGGCUGUGGCUAGACUUCC [G2U G17U A25G G44U], the self-cleavage came to 0.01.

GUCAGAGCUCAACACAGCGUGGCAAAGUGGCUUUGCCUAGACUGUU [G2U G33U G36C C45U C46U]: the self-cleavage is 0.

In the case of GUCAGAGCUCAACACAGCGUGGCAAAGUGACUGUAGCUAGACUGCC [G2U G30A G35A], the self-cleavage came out at 0.02.

On to GUCAGAGCUCAACACAUCGUGGCAAAGUUGCUGUGGCUAGACUGUC [G2U G17U G29U C45U], for which the self-cleavage is 0.

Regarding GUCAGAGCUCAACACAGCAUGGCAAAGUGGCUGAGGCUAGACUGCC [G2U G19A U34A], the self-cleavage worked out at 0.01.

Regarding GUCAGAGCUCAACACAGCUUGUCAAAGUGGCUGUGGCUAGACUGCC [G2U G19U G22U], the self-cleavage came out at 0.22.

In the case of GUCAGAGCUCAACACAGCGUGGCAAACUGGCUGUGGAUAGACUGCC [G2U G27C C37A], the self-cleavage is 0.1.

GUCAGAGCUCAACACAUCGAGGCAAAGUGGCUGUGGCUAGACUGCC [G2U G17U U20A]: the self-cleavage is 0.01.

For GUCAGAUCUCAACACAGCGUGGUAAAGUGGCUGUGGCUAGACUGCC [G2U G7U C23U], the self-cleavage is 0.04.
